Paper PMC6919601, “Identification of Plasmodium dipeptidyl aminopeptidase allosteric inhibitors by high throughput screening” (PLoS ONE, 2019)
Among all 110,000 compounds or so, about 230 (0.21%) showed an effect of 50% or more. The list shows a part of the results.

Biological target: DPAP1 (Plasmodium falciparum, UniProt Q8IIJ9)
Experiment: primary screen, percent inhibition; read by cleavage of a fluorogenic dipeptide substrate; higher = more effect of the substance
Parameters: species or system P. falciparum D10 trophozoite lysates; single well
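Further: 30 min substrate incubation versus DMSO and 10 µM JCP410 controls.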

Sequence of DPAP1 (Q8IIJ9 whole entry, looked up): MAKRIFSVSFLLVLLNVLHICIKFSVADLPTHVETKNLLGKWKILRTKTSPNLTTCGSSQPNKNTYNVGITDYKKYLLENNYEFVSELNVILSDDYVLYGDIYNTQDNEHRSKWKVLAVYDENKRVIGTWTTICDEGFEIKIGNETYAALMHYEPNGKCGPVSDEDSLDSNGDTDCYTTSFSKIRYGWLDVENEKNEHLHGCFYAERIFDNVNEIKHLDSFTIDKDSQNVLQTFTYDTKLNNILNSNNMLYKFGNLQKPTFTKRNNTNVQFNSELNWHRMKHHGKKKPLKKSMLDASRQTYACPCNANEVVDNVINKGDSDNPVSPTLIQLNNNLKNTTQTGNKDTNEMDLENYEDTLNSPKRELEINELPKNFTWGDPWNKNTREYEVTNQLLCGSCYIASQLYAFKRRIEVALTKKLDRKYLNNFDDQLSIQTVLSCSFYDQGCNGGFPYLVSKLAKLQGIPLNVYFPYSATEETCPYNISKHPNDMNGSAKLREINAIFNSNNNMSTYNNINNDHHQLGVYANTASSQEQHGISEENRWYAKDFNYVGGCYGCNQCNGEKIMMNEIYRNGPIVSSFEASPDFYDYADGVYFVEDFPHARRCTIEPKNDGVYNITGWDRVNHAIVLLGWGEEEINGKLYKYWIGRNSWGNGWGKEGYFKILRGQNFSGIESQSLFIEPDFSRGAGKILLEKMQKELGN

Structure (SMILES) | % Inhibition @ 10 uM
CCOC(=O)C1CCN(Cc2ccccc2OC)CC1 | -1.86%
N#CC(C(N)=O)c1ccc2ccccc2c1 (centres unmarked) | 3.8%
Cc1cccc2c1-c1sc(C(=O)Nc3cccnc3Cl)cc1CO2 | 0.291%
CC(=O)NCCNc1nc2c(-c3cccc(C(F)(F)F)c3)nnn2c2ccccc12 | 0.44%
COC(=O)/C(=C/c1ccc(Cl)c(Cl)c1)C(C)=O | 25.5%
COc1ccc(CNC(=O)c2cc(C3CC3)nc3c2c(C)nn3-c2ccc(C)cc2)cc1 | 7.7%
COc1cc(OC)c(OC)cc1/C=C1\N=C(c2ccc(C)cc2)OC1=O | -0.441%
COc1cc2c(cc1OC)C(c1cccc(F)c1)CC(=O)N2 (centres unmarked) | -1.52%
CC1(c2ccccc2)CC(C)(C)N(C(=O)/C=C/c2ccccc2)c2ccccc21 (centres unmarked) | 0.467%
CC(=O)c1c(C)oc2c(Cl)c(Cl)c(O)cc12 | 0.484%
COc1ccc(CCNS(=O)(=O)c2ccc(Cl)cc2)cc1OC | 3.66%
Cc1ccc(Cn2nc(C)n3c(cc4cc(C)ccc43)c2=O)cc1 | -3.79%
CCOc1ccc2nc(NC(=O)C3CCN(S(=O)(=O)c4cccc5cccnc45)CC3)sc2c1 | -1.54%
CS(=O)(=O)c1ccc2[nH]c(NC(=O)CCN3C(=O)c4ccccc4C3=O)[s+]c2c1 | -1.38%
COc1ccccc1OCc1ccc(C(=O)NC2CCCCCC2)o1 | -6.94%
CCCCC1CCC(C(=O)OC23CCC(c4ccccc4)(CC2)CC3)CC1 (centres unmarked) | -1.15%
CCNc1oc(COc2ccc(F)cc2)nc1C#N | -0.958%
COc1c(Cl)cc(Cl)cc1C1C(C#N)=C(N)Oc2[nH]nc(-c3ccc4c(c3)OCO4)c21 (centres unmarked) | 2.32%
CCC(C)NC(=O)c1cn(CCOC)c(=O)c2c1c1ccccc1n2C (centres unmarked) | 0.0221%
CC(NC(=O)c1cc2sccc2n1C)c1ccc2c(c1)OCCO2 (centres unmarked) | -1.37%
CC[C@H](NC(=O)[C@H](CC(C)C)NC1=NS(=O)(=O)c2ccccc21)C(=O)c1nc2ccccc2o1 | -3.69%
Cc1ccc(Cn2cnc3c(cnn3-c3ccc(C)c(C)c3)c2=O)cc1 | -5.37%
c1ccc2c(c1)OCC(CN1CCCCC1)O2 (centres unmarked) | 4.11%
Cc1nc2sc(C(=O)Nc3cnc4ccccc4c3)c(N)c2c(C)c1C | 2.95%
Cc1ccccc1Cn1c(SCc2ccccn2)nc2c1c(=O)n(C)c(=O)n2C | -0.703%

Structure (SMILES) | % Inhibition @ 10 uM
CN(C)c1nc(NC(=O)NS(=O)(=O)c2ccccc2Cl)nc(-c2ccco2)n1 | 2.38%
CN(CCCC(=O)n1cnc2ccccc21)S(=O)(=O)c1ccc(Cl)cc1 | -4.51%
Cc1cc(C(=O)NCCCN2CC(C)CC(C)C2)n(-c2ccccc2)n1 (centres unmarked) | -3.7%
Cc1onc(-c2ccccc2Cl)c1C(=O)N1CC(C)OC(C)C1 (centres unmarked) | -2.35%
COc1ccc2c(c1)C(C)=CC(C)(C)N2C(=O)Nc1ccc(C)cc1 | 2.17%
COc1ccc(S(=O)(=O)NCc2ccccc2OC)cc1 | -4.02%
CC1CCN(c2nn3c(=O)c(C(=O)NCc4ccco4)cnc3s2)CC1 | 1.8%
COc1cccc(CN2CCN(Cc3cc(Br)ccc3O)CC2)c1OC | -7.18%
O=C(Nc1ccc(O)cc1C(=O)O)c1ccc(N2C(=O)c3ccccc3C2=O)cc1 | 2.37%
CCCc1cc(O)n2nc(COc3ccccc3)nc2n1 | -4.19%
CC(C)c1c(O)cc(-c2ccncc2)n(-c2ccc(Cl)cc2)c1=O | 4.61%
O=C(O)CSc1ncnc2sc3c(c12)CCCC3 | -2.62%
COc1ccc(/C=C2\N=C(c3cccs3)OC2=O)c(OC)c1OC | -2.15%
CC(C)(C)c1ccc(S(=O)(=O)N2CCN(Cc3noc(CCC(=O)N4CCCC4)n3)CC2)cc1 | -0.537%
COc1ccc(OC)c(C2C=C(c3ccc(Cl)cc3OC(F)F)Nc3nnnn32)c1 (centres unmarked) | 3.45%
Cc1ccc(CCC2(O)CCCCC2)cn1 | 1.42%
COc1ccc(C2C3=C(Nc4ncnn42)c2cc(Cl)ccc2OC3c2cccs2)cc1 (centres unmarked) | 0.0842%
CCOC(=O)c1c(C)[nH]c(C)c1S(=O)(=O)N1CCC(C(=O)N(CC)Cc2ccccc2)CC1 | 1.22%
Cc1cc(NC(=O)c2nc(-c3ccc(Cl)cc3)n3c2CCCCC3)no1 | 4.83%
COc1cccc(C2N3CC4(C)CN2CC(c2ccccc2)(C3)C4=O)c1O (centres unmarked) | -3.08%
Cc1ccc(CSCc2ccc(C(=O)NCCCOC(C)C)o2)cc1 | 3.24%
CC1=C(C(=O)c2ccccc2)C(NC(=O)C2CC2)(C(F)(F)F)C(=O)N1CCc1ccccc1 (centres unmarked) | -7.15%
CCN1CCCC1CNC(=O)c1cc2c(s1)CS(=O)(=O)C2 (centres unmarked) | -6.26%
COc1ccc(-c2c(C)nn3c(NCC(C)c4ccccc4)cc(C)nc23)cc1OC (centres unmarked) | -3.7%
CCc1ccc(CNC(=O)CCc2nc(-c3cccs3)no2)cc1 | 0.163%
